# This list was built around the results that the source calls inconclusive (neither active nor inactive); the mix of calls is not that of the screen. For part of these data: No potency is given beside an inconclusive call; the fits are too rough. Calls of active or inactive are those of the source. Unless noted, the call rests on the fitted dose curve; in most records, active means well fitted cell-killing curve with a large enough effect in the repeat runs; inconclusive means weak or mixed curves, or effect the other way; inactive means no such curve, though single readings can be large or run the other way.
# Target: Peroxisome proliferator-activated receptor delta (Homo sapiens) (UniProt Q03181)
# Test: qHTS assay to identify small molecule antagonists of the peroxisome proliferator-activated receptor delta (PPARd) signaling pathway (AID 743215; active means well fitted inhibition curve with a large enough effect in the signal ratio in the repeat runs, not every such curve was filed as active; inconclusive means weak or mixed curves, or effect the other way; inactive means no such curve, though single readings can be large or run the other way; the % refers to the signal ratio;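 further: cells stimulated with agonist L165041 at 300 nM final during compound exposure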)
# Settings: HEK293H PPARd-UAS-bla, beta-lactamase FRET ratio, antagonist, 17 h; ratio activity, negative = inhibition: at 62 µM (top of the series) unless noted
# Outline: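 Plated HEK293H PPARd-bla cells rested 5 h at 37 C and 5% CO2. Compound, then agonist L165041 at 300 nM final, was added; 17 h at 37 C followed. Substrate loading, 2 h room temperature, fluorescence measured.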
# On the % scale 0 is the no-effect control and ±100 the full control effect; potency means the concentration at half of the fitted maximal effect; tags describe the fitted curve by direction and shape or compound fluorescence and quenching.
# UniProt Q03181, sequence (Q03181 whole entry, looked up): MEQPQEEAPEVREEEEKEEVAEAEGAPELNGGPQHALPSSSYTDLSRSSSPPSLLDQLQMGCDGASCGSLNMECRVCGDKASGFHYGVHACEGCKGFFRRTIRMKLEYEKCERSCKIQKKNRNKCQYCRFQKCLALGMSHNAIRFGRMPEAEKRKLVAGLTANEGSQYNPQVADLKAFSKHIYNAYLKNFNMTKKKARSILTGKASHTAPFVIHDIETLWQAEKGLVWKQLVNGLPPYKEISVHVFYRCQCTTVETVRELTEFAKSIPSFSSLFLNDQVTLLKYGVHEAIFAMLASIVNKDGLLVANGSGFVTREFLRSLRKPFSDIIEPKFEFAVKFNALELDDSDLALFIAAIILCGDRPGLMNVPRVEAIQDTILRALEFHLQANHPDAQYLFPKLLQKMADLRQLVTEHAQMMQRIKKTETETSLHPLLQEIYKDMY
Structure (SMILES),Potency,"ratio activity, negative = inhibition"
CC(C)C(=O)O,inactive,–
OCCOc1cccc(OCCO)c1,inactive,–
O=C(Oc1ccccc1C(=O)O)c1ccccc1O,inactive,–
CC1(C)[C@H]2CC[C@]1(C)[C@H](O)C2,–,inconclusive: 22.1%
CN(C)C(=O)Nc1ccc(Cl)c(Cl)c1,–,inconclusive: 0.195%
C=C(C)C(=O)OCCC(C)OC(=O)C(=C)C (configuration not stated),inactive,–
CC(C)(Sc1cc(C(C)(C)C)c(O)c(C(C)(C)C)c1)Sc1cc(C(C)(C)C)c(O)c(C(C)(C)C)c1,inactive,–
O=C(OCCOCCOCCOC(=O)c1ccccc1)c1ccccc1,–,inconclusive: 2.57%
O=C(Oc1ccccc1)c1ccccc1,"inconclusive [fluorescent, partial curve, poor fit]",–
C[C@@H]1CCC[C@H](C)N1CCCC(O)(c1ccccc1)c1ccccn1 (some centres not stated),–,inconclusive: -35%
COC(=O)c1ccc(C)cc1C1=NC(C)(C(C)C)C(=O)N1 (configuration not stated),inactive,–
O=C(O)c1c(O)c(-c2ccccc2)nc2ccccc12,–,inconclusive: -42%
O=C1C=CCCC1,inactive,–
O=C(O)c1ccc(O)c(O)c1,inactive,–

# Target: Bile acid receptor (Homo sapiens) (UniProt Q96RI1)
# Test: qHTS assay to identify small molecule antagonists of the farnesoid-X-receptor (FXR) signaling pathway (AID 743217; active means well fitted inhibition curve with a large enough effect in the signal ratio in the repeat runs, not every such curve was filed as active; inconclusive means weak or mixed curves, or effect the other way; inactive means no such curve, though single readings can be large or run the other way; the % refers to the signal ratio)
# Settings: HEK293T FXR-UAS-bla, beta-lactamase ratio, CDCA-stimulated, 16 h; activity change, negative = inhibition: at 62.6 µM (top of the series) unless noted
# Outline: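 Screen of the Tox21 10K library in quantitative HTS format using FXR-UAS-bla HEK 293T reporter cells. Agonist chenodeoxycholic acid, 50 uM final, added with compounds; 16 h incubation at 37 °C; beta-lactamase FRET fluorescence measured.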
# UniProt Q96RI1, sequence (Q96RI1 whole entry, looked up): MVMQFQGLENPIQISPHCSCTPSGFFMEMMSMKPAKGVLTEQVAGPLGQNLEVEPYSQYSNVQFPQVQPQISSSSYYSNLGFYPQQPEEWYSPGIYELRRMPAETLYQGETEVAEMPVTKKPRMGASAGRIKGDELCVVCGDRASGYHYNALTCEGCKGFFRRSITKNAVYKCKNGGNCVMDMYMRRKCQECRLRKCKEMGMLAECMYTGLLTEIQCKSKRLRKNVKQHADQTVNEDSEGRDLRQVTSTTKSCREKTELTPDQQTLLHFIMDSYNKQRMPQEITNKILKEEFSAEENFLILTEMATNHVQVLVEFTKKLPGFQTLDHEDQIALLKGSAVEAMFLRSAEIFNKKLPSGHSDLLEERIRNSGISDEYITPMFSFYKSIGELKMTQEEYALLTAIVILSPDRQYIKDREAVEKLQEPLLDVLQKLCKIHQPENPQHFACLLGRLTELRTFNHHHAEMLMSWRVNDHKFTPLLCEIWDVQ
Structure (SMILES),Potency,"activity change, negative = inhibition"
O=C(OCCOCCOCCOC(=O)c1ccccc1)c1ccccc1,inactive,–
O=C(Oc1ccccc1)c1ccccc1,–,inconclusive: -35%
NC(=S)NNC(N)=S,–,inconclusive: 5.67%
CCN1CCCC1=O,inactive,–
O=C(O)c1c(O)c(-c2ccccc2)nc2ccccc12,active: 16.8 µM,–
CCCC(=O)OCCC(C)C,inactive,–

# Test system: not listed separately
# Test: qHTS assay to identify small molecule agonists of the farnesoid-X-receptor (FXR) signaling pathway - cell viability counter screen (AID 743218); further: nearly all actives have a fitted effect of over 45% in size
# Settings: FXR-bla HEK293T viability, CellTiter-Glo luminescence, 16 h; viability change, negative = cytotoxic: at 62.6 µM (top of the series) unless noted
# Outline: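 Viability of FXR-bla HEK 293T cells is measured by ATP-based CellTiter-Glo luminescence following 16 h compound treatment at 37 C and a prior 2 h room-temperature beta-lactamase substrate step.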
row,Structure (SMILES),Potency
1,COC(=O)c1ccc(NC(C)=O)cc1OC,inactive
2,CCCC(C)C,"inconclusive [rising, partial curve, poor fit]"
3,FC(F)(F)c1ccc(Cl)c(Cl)c1,inactive
4,O=C(O)c1c(O)c(-c2ccccc2)nc2ccccc12,"inconclusive [cytotoxic, partial curve, poor fit]"
5,O=C(O)c1cn(C2CC2)c2cc(Cl)c(F)cc2c1=O,"inconclusive [rising, partial curve, poor fit]"
6,CC(C)C(=O)OCCc1ccccc1,inactive
7,O=c1c2ccccc2oc2ccccc12,"inconclusive [rising, full curve, poor fit]"
